Assay results as given in PubChem BioAssay AID1918940 (Molecular Pharmacology Branch, DTP, NCI, 2023).
Not every entry of the source has a single result; some have several. They are shown here; other results are not. There may be further records. The records of an entry are repeats (runs, samples, wells, individuals or studies). Counts like (3×) stand for listed records that agree. Marks such as [2022-09] give the month of the run.

Tested on: NCI-H211 complex spheroid viability
Experiment: Anticancer human tumor NCI-H211 cell line growth inhibition [LSD1];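 also: luminescent viability read after seven days of drug exposure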;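 as to viability, T/C: 100% = DMSO vehicle control viability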
Details: for IC50: compound alone; for viability, T/C: stronger effect = lower value
Source text: Multicellular complex tumor spheroid response to LSD1 Inhibitor Iadademstat in combination with a variety of drugs and investigational agents in selected tumor cell lines
The current study was undertaken to assess response to LSD1 inhibitors in combination with standard-of-care drugs and investigational agents in solid tumor complex spheroid models as well as in the K-562 leukemia. Complex spheroids include a stromal component modeled by human endothelial cells (HUVEC) and fibroblasts modeled by human mesenchymal stem cells (MSCs). The concentration ranges selected for each drug and investigational agent were based upon clinically achievable concentrations if the clinical Cmax of the agent was known.
Compounds. The drugs and investigational agents used in this study are listed on Table 1. All of the agents used, including staurosporine (NSC755774) and gemcitabine (NSC613327), were obtained from the Developmental Therapeutics Program, NCI. FDA-approved anticancer drugs are available from the NCI at http://dtp.nci.nih.gov/branches/dscb/oncology_drugset_explanation.html. Drugs and investigational agents were >95% pure by proton nuclear magnetic resonance (NMR) and liquid chromatography/mass spectrometry (LC/MS). Stock solutions were prepared at 400x in DMSO, stored at -70 degrees C, and diluted in fresh medium prior to their use. The final concentration of DMSO in cell culture wells never exceeded 0.25% (v/v). The FDA-approved anticancer drug set is available from the Developmental Therapeutics Program at https://dtp.cancer.gov/organization/dscb/obtaining/available_plates.htm. All drugs and investigational agents were tested over a range starting from a high concentration at or near the clinical Cmax and decreasing in half-log increments. If the clinical Cmax for an agent had not been determined, the highest concentration tested was 10 microM.
Cell Lines. The patient-derived cancer cell (PDC) lines: 292921-168-R-J2-PDC, K24384-001-R-PDC, and 521955-158-R2-J5-PDC pancreatic carcinomas, 556581-035-R-J1 ovarian carcinoma, 324938-238-R-J1-PDC, 855422-203-R-J1-PDC and 883617-216-R-J1-PDC urothelial bladder carcinomas, 743489-274-T-PDC renal cell carcinoma, 138582-R-J1 Merkel cell tumor, K60290-347-R-J1 and K57222-313-R-J1-PDC glioblastomas, 653999-131-R-J2-PDC, LG0703-F948-PDC, and 349418-098-R-PDC non-small cell lung carcinomas, 885512-296-R-J2-PDC, 171881-019-R-J1-PDC breast carcinomas and 186277-243-T-J2-PDC and 233499-124-R-J2-PDC colon carcinomas were obtained from the NCI Patient-Derived Models Repository (PDMR, https://pdmr.cancer.gov). The established cell lines NCI/ADR-RES (RRID:CVCL_14520 and OVCAR-5 (RRID:CVCL_1628) ovarian carcinomas, 786-O (RRID:CVCL_1051) and A498 (RRID:CVCL_A498) renal cell carcinoma, NCI-H211 (ATCC, cat. CRL-5824; RRID:CVCL_1529), NCI-H196 (ATCC, cat. CRL-5823, RRID:CVCL_1509), SW 1271 (ATCC, cat. CRL-2177, RRID:CVCL_1716) and NCI-H1876 (ATCC, cat. CRL-5902, RRID:CVCL_1503) small cell lung carcinomas, MDA-MB-231 (RRID:CVCL_0062) and MDA-MB-468 (RRID:CVCL_0419)breast carcinomas (10-12). Pooled donor human umbilical vein endothelial cells (HUVEC, Lonza, cat. CC-2519) and human mesenchymal stem cells (hMSC, Lonza, cat. PT-2501) were purchased from Lonza (Walkersville, MD).
Cell Culture. All cells were maintained in an incubator at 37 degrees C and 5% CO2 with 95% humidity. The PDC lines were cultured according to standard operating procedures established by the NCI PDMR (https://pdmr.cancer.gov). Briefly all PDCs were thawed and cultured in Matrigel-coated flasks prepared with a working solution of 1X Ham's F-12 nutrient mix, without supplementation (Invitrogen, Waltham, MA, cat. 11765054), 100 U/mL penicillin-streptomycin (Invitrogen, cat. 15140122), and 2.5% Matrigel (Corning Inc., Corning, NY, cat. 354248) for the first three passages. […]

NC1CCC(NC2CC2c2ccccc2)CC1 (stereo not given)
IC50 (combination with iadademstat, run of 11/29/2021): 4.09 µM and 4.74, 3.91, 4.83, 4.32, 2.47, 3.2, 5.62, 5.69, 5.8, 4.49, 6.28, 3.67, 4.31, 3.28, 7.55, 4.37, 3.34, 5.15, 5.39, 5.96, 7.63, 6.26, 5.89 µM [2021-11] | viability, T/C (compound alone 0.1 µM): 72, 70.5, 70.7, 67.7 (2×), 69.5, 67.9, 72.5, 78.4, 77.7, 61.9, 73.9, 61.4, 79.4, 68.2, 63, 60.7, 67.2, 66.2, 69.3, 86.9, 87.7, 75% | viability, T/C (compound alone 1 µM): 66.1, 52.6, 65.4, 67, 65.9 (2×), 71.1, 57.4, 67.3, 68.3, 63.7, 64.1, 76.2, 63.8, 77.2, 60.5, 67.5 (2×), 61.8, 59.3, 75.2, 73.8, 96, 64.6, 58.3% | viability, T/C (compound alone 3.16 µM): 60.5, 50.9, 50, 62.6, 60.7 (2×), 63.4, 75.1, 53.2, 54.6, 56.9, 54.3, 50.7, 66.9, 57.5, 51.1, 56.3, 58.4, 52.9, 59.1, 64.5, 73.3, 71, 71.7, 59%

NC1CC1c1ccc(-c2cccc(O)c2)cc1 (stereo not given)
IC50 (combination with iadademstat, run of 12/07/2021): 2.62 µM, > 10 µM, 5.4 µM, 2.47 µM, 6.18 µM, 8.57 µM | viability, T/C (compound alone 0.316 µM): 62.7, 66.2 (2×), 76.1, 71.3, 66.8, 69.5, 65.4, 76.5, 67.7, 56.4, 85.4, 87.8, 80.3, 78.4, 87.6, 75.8, 66.5, 67.3, 73, 83.1, 77.5, 70.4, 73.1, 82.1% | viability, T/C (compound alone 1 µM): 62.6, 49.3, 65.3, 75.7 (2×), 60.2 (2×), 63.8, 63.5, 82.9, 66.2, 44, 95.9, 87.5, 55.1, 95.8, 63.1, 64.5, 73.7, 76.5, 71.5, 76.7, 70.6, 59.3, 73.5% | viability, T/C (compound alone 3.16 µM): 46.1 (2×), 72.4, 51.2, 54.1, 62 (2×), 55.5, 69.8 (2×), 82.5, 63, 78.8, 47.3, 86.8, 63.5, 64.2, 68, 60.8 (2×), 87.3, 68.2, 67.3, 66.5, 60.7% | viability, T/C (compound alone 10 µM): 40.4, 49, 79.7, 45.3, 55.8 (2×), 56.2, 73.2, 52.9, 62.2, 72.5, 76.4, 60.2, 50, 88.7, 54.8, 50.4, 59.7, 41, 54.4, 74.7, 57.4, 82, 65.9, 48.3%

CC1(C)CCC(CN2CCN(c3ccc(C(=O)NS(=O)(=O)c4ccc(NCC5CCOCC5)c([N+](=O)[O-])c4)c(Oc4cnc5[nH]ccc5c4)c3)CC2)=C(c2ccc(Cl)cc2)C1
IC50: 7.6 µM [2021-11] and < 31.6 nM [2021-12]
